Some entries of the source have several records that differ or are many. The other results are left out here. The source may hold further records. The records of an entry repeat one measurement across runs, samples, wells, individuals or studies. Counts like (3×) give the number of equal values in this list.

Drawing on PubChem BioAssay AID2060495 (Molecular Pharmacology Branch, DTP, NCI, 2025), this text covers viability, T/C and IC50 for three compounds.

For this experiment, the system named is 521955-158-R2-J5-PDC complex spheroid viability. Put plainly: Anticancer human tumor 521955-158-R2-J5-PDC patient-derived pancreatic carcinoma cell line growth inhibition [GQUAD]. The following applies: for viability, T/C: stronger effect = lower value. From the text: DNA G-quadruplex Stabilizer Agents in Combinations in Complex Spheroids
A high-throughput screen of multi-cell type tumor spheroids was designed to identify active combinations of DNA G-quadruplex stabilizer agents and targeted small molecules. Complex spheroids include a stromal component modeled by human endothelial cells (HUVEC) and fibroblasts modeled by human mesenchymal stem cells (MSCs). The concentration ranges selected for each drug and investigational agent were based upon clinically achievable concentrations if the clinical Cmax of the agent was known.
Compounds. The drugs and investigational agents: pidnarulex (CX-5461; NSC782164), APTO-253 (NSC789042), BRACO-19 (NSC847499), peposertib (NSC802822), ceralasertib (NSC780249), elimusertib (NSC800525), camonsertib (NSC841442), AZD-1390 (NSC803789), olaparib (NSC753686), talazoparib (NSC767125), ART-558 (NSC835418), sotorasib (NSC818433), MRTX-1133 (NSC836407), SN-38 (NSC673596), topotecan (NSC609699), etoposide (NSC141540), doxorubicin (NSC123127), gemcitabine (NSC613327), 5-fluorouracil (NSC19893), paclitaxel (NSC125973), vemurafenib (NSC761431), panobinostat (NSC761190), R-306465 (JNJ-16241199; NSC773264), adavosertib (NSC754352), TP-3654 (NSC805149), carboplatin (NSC241240), KSQ-4279 (NSC840948), and staurosporine (NSC755774) were obtained from the National Cancer Institute (NCI) Developmental Therapeutics Program Chemical Repository (34). The FDA-approved anticancer drug set is available from the NCI Developmental Therapeutics Program. […] The stock solutions were prepared in dimethyl sulfoxide (DMSO, Sigma-Aldrich, St. Louis, MO, cat. D2650) at 800-fold the tested concentration and stored at -70 degrees C prior to their use. All drugs and investigational agents were tested over a range starting from a high concentration at or near the clinical Cmax and decreasing in half-log increments. If the clinical Cmax for an agent had not been determined, the highest concentration tested was 10 microM.
2.3 Cell Culture. All cells were maintained in an incubator at 37 degrees C and 5% CO2 with 95% humidity. The PDC lines were cultured according to standard operating procedures established by the NCI PDMR. All PDCs were thawed and cultured in Matrigel-coated flasks prepared with a working solution of 1X Ham's F-12 nutrient mix, without supplementation (Invitrogen, cat. 11765054), 100 U/mL penicillin-streptomycin (Invitrogen, cat. 15140122), and 2.5% Matrigel (Corning Inc., cat. 354248) for the first three passages. […]
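Also: spheroids exposed to agents for one week before reading.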
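For viability, T/C in this document: 100% = DMSO vehicle control viability.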

Take `Cc1cnc(CNC(=O)c2c(=O)c3ccc(N4CCCN(C)CC4)nc3n3c2sc2ccccc23)cn1`: the viability, T/C (compound alone 0.1 µM) is reported as 56.1, 53.5, 57.8, 83.4, 60.4, 50.5, 56.8, 69.6, 53.8, 56.4, 53.9, 52.7%.
With `Cc1[nH]c2ccc(F)cc2c1-c1nc2c3cccnc3c3ncccc3c2[nH]1`, the viability, T/C was 108 (2×), 88.3, 89.9, 101, 100, 111, 97.9, 94.7, 95.7, 86.1, 113% (compound alone 0.316 µM) and 79.2, 91.2, 89.1, 81.2, 93.3, 99.7, 87.2, 83.4, 84.2, 71.7, 79.4, 82% (compound alone 3.16 µM).
Turning to `C#Cc1c(F)ccc2cc(O)cc(-c3ncc4c(N5CC6CCC(C5)N6)nc(OCC56CCCN5CC(F)C6)nc4c3F)c12` (centres undefined), the IC50 (as a rule, the point on the concentration scale where inhibition reaches its midpoint) (compound alone) is reported as < 31.6 nM, 2.32 µM, 576 nM.
